Experimental data: the supplement of paper PMC11417369
± gives the standard deviation of the averaged measurements. The list shows a part of the results.

Tested on: PfAP2-G AP2 domain (GST-tagged)
Assay: gcPBM binding intensity (ln(normalized median fluorescence intensity)); higher = stronger DNA binding
Outline: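 Each value is the highest Masliner-normalised natural-log median intensity across replicate spots of either orientation of a probe. The probes were primer-extended double-stranded 36-bp intergenic genomic sequences on an Agilent 4 × 180k array, alongside negative controls, exposed for 1 h to GST-tagged P. falciparum DNA-binding domains expressed in E. coli. Bound protein was picked up with Alexa488 anti-GST antibody and scanned at 488 nm.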

Compared with “GATTTTAAAATAATTACACACTTGATTATGTCCAAA [CACACA_site3491]”, “ATAAATATAAATATATGTACATATATATATATATAT [XGTACX_site7433]” is higher in “gcPBM binding intensity (ln)” value: 10.3 ± 0.28 for the first, 11.2 ± 0.61 for the second.

Going from “TAAAAATATAGGTATACACACATATAAATATAAATA [CACACA_site7785]” to “CTTATACATAAATTTTGTACACACAAAAAAAAAAAA [XGTACX_site2665]”, the “gcPBM binding intensity (ln)” value rises from 9.995 ± 0.021 to 11.2 ± 1.1.

Compared with “AAAAAAATATATATTACACACATATATACATATATA [CACACA_site3125]”, “ATATTTTGTATAATCACACACACTATTATTAAATAG [CACACA_site2612]” is higher in “gcPBM binding intensity (ln)” value: 9.865 ± 0.035 for the first, 10.125 ± 0.007 for the second.

Compared with “TTACATTTTTTATGTTTTTTTATATTGCAAAAAAAT [CACACA_negctrl_site1050]”, “ATATATATATATATATGTACTTATTAAGATTAAAAA [XGTACX_site61]” is higher in “gcPBM binding intensity (ln)” value: 10 ± 0.15 for the first, 11.2 ± 0.73 for the second.

“TCAAATTATATGAGTGGTACACATGTAATATTTTTA [XGTACX_site6518]” and “AAAAAACGACCTTACGCACACATTATTCTAGTCTAT [CACACA_site2349]” are within error of each other in “gcPBM binding intensity (ln)” value: 11.4 ± 0.93 for the first, 10.48 ± 0.028 for the second.

“TTAAATATAAAAAGTAGTACATTTATATTTACCATA [XGTACX_site2962]” and “TGTGTTAATAGAAAAAGTACATATACATATATATAT [XGTACX_site4951]” are within error of each other in “gcPBM binding intensity (ln)” value: 11.5 ± 0.95 for the first, 11.2 ± 0.79 for the second.

Compared with “TGCACAGACGGACACACACACAACTAAAAAATAATG [CACACA_site5424]”, “TATAATAATGCCTTTACATGCAATAATAAAGAAATA [TGCATGCA_site631]” is lower in “gcPBM binding intensity (ln)” value: 11.5 ± 0.95 for the first, 9.96 ± 0.47 for the second.

Compared with “AATGAATTAATAGCTACACACGGTAACATAATAACT [CACACA_site851]”, “TCTTTTGAACAAATTTGTACGTATATAAAAATATTT [XGTACX_site6547]” is higher in “gcPBM binding intensity (ln)” value: 10.015 ± 0.007 for the first, 11.4 ± 0.71 for the second.

“AAAAAAAAAAAAAAAACACACATACACCCCCACCCA [CACACA_site9117]” and “ATTAATAATATTCCTTGTACATGATTTTTCTAAATA [XGTACX_site7099]” are within error of each other in “gcPBM binding intensity (ln)” value: 11.4 ± 0.73 for the first, 10.9 ± 0.4 for the second.

“TATAAATATAAATACACACACACATCAATACAGATA [CACACA_site5850]” and “ACCTTTGATATATACACACACATAAAAAAAATATAT [CACACA_site6952]” are within error of each other in “gcPBM binding intensity (ln)” value: 10.2 ± 0.2 for the first, 10.3 ± 0.33 for the second.

Compared with “TTCTTTTTCCAATTTGCACACCACAAAATTATATAT [CACACA_site2909]”, “ATATTTCATCTAGCTACACACATATAACAAATTACT [CACACA_site7843]” is lower in “gcPBM binding intensity (ln)” value: 10.5 ± 0.28 for the first, 10.06 ± 0.049 for the second.

“TACATAAAAATATCACGTACATATAATCATATACTA [XGTACX_site3505]” and “ATGTTGTCAAAAAAATGTACTTACATAATATTTTCC [XGTACX_site1732]” are within error of each other in “gcPBM binding intensity (ln)” value: 11.2 ± 0.69 for the first, 11.1 ± 0.71 for the second.

“AGAAGTCTGTAATGATGTACTGGAAAAATATAAATA [XGTACX_site8148]” and “TAGATCTTATTTACAAGTACATATATACGATTCATT [XGTACX_site7578]” are within error of each other in “gcPBM binding intensity (ln)” value: 10.8 ± 0.64 for the first, 11.2 ± 0.81 for the second.

“ATCTAATATATATTCTGTACGTAATTAAAACCACAA [XGTACX_site3152]” and “CGCATACACCAACACACACACACATATATATATATA [CACACA_site635]” are within error of each other in “gcPBM binding intensity (ln)” value: 11.5 ± 0.91 for the first, 10.4 ± 0.59 for the second.

“TATAAATACTTATATGTACACACATATAGATATATA [CACACA_site8819]” and “TTTTTTTTTTAAAAAACACACACCTAAACAAGATAT [CACACA_site875]” are within error of each other in “gcPBM binding intensity (ln)” value: 11.3 ± 0.88 for the first, 10.5 ± 0.36 for the second.

“TATAATTGTCTTCACACACACATATATATATATATA [CACACA_site2743]” and “AAAATAAAAAAAAAAGGTACACAAAAAGATGGACTG [XGTACX_site2650]” are within error of each other in “gcPBM binding intensity (ln)” value: 10.3 ± 0.42 for the first, 11.4 ± 0.81 for the second.

“ATATATATATATATTTGTACATATATATAATTTTTC [XGTACX_site7460]” and “ATTTGGCATGGACACACACACACACCGACAGACATA [CACACA_site4491]” are within error of each other in “gcPBM binding intensity (ln)” value: 10.9 ± 0.7 for the first, 10.8 ± 0.44 for the second.

“TTATATTATGGACACACACACAAAAAAAAAAAAAAA [CACACA_site7744]” and “TTGTTTTTAGTTTATACACACCATATTAATATAATG [CACACA_site7452]” are within error of each other in “gcPBM binding intensity (ln)” value: 11.1 ± 0.9 for the first, 10.3 ± 0.16 for the second.

First: AAATTAATTAAATATACACACATATATAAATATATA [CACACA_site391]
Second: ATATATATATAAAGTTGTACATTTTTTATTTTTTCA [XGTACX_site7847]
The “gcPBM binding intensity (ln)” value of the first is lower: 9.9 ± 0.31 for the first, 11.2 ± 0.72 for the second.

“TTAAAACCAAAACACAGTACATATATATATATATAT [XGTACX_site5668]” and “AAAATATATTATATATGTACATATTACGTTTTAATT [XGTACX_site2518]” are within error of each other in “gcPBM binding intensity (ln)” value: 10.7 ± 0.5 for the first, 11.1 ± 0.6 for the second.

“CAATTTTAAGTAATCAATTTTTTTAAAAAACACAAA [CACACA_negctrl_site961]” and “TATATATATATGTATACACACATATGTATGTTATGT [CACACA_site4053]” are within error of each other in “gcPBM binding intensity (ln)” value: 10.1 ± 0.21 for the first, 10.3 ± 0.16 for the second.

First: GCATAATATACTCTTACACACCATTTCTATATACAT [CACACA_site6799]
Second: TTTGTTAATTATAAATGTACATATTATATATATATA [XGTACX_site8870]
The “gcPBM binding intensity (ln)” value of the first is lower: 10.3 ± 0.17 for the first, 11.1 ± 0.62 for the second.
